# Some of the results follow.
# B1: STA (Solanum tuberosum), Q9S8M0 (protein)
# chain: NASPPSPSPLPYPQCGMKKGGGKCIKTGECCSIWGWCGTTNAYCSPGYCQKQCPGPYPEGRCGWQANGKSCPTGTGQCCSNGGWCGTTSDYCASKNCQSQCKLPSPPPPPPPPSPPPPSPPSPPPPSPPPPPPPSPPPPSPPPPSPSPPPPPASPPPPPPALPYPQCGIKKGGGKCIKTGECCSIWGWCGTTNAYCSPGYCQKQCPGPYPEGRCGWQANGKSCPTGTGHCCSNAGWCGTTSDYCAPVNCQAQCNTTTLTSPIKNRMRGIESFMLNVV
# Assays:
# Experiment in all cases: glycan array binding signal (z-score within array); higher = stronger binding
# Conditions in all cases: glycan notation: IUPAC condensed, linker removed
# Fuc(a1-2)Gal = biological target: Fuc(a1-2)Gal
# Summary of the method: (§1)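 The binding signal is a Z-score computed within each array. Data were drawn from 3228 arrays in the Consortium for Functional Glycomics database, restricted to those with a known protein sequence. Scores were averaged over arrays of the same protein sequence at different concentrations or buffers, and over linkers, and negative values can be taken as non-binding.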
# Fuc(a1-2)Gal(b1-3)GalNAc = biological target: Fuc(a1-2)Gal(b1-3)GalNAc
# Summary of the method: as §1
# [1] = biological target: Fuc(a1-2)Gal(b1-3)GalNAc(b1-3)Gal
# Summary of the method: as §1
# [2] = biological target: Fuc(a1-2)Gal(b1-3)GalNAc(b1-3)Gal(a1-4)Gal(b1-4)Glc
# Summary of the method: as §1
# [3] = biological target: Fuc(a1-2)Gal(b1-3)GalNAc(b1-3)Gal(b1-4)Glc
# Summary of the method: as §1
# [4] = biological target: Fuc(a1-2)Gal(b1-3)GalNAc(b1-4)[Neu5Ac(a2-3)]Gal(b1-4)Glc
# Summary of the method: as §1
# [5] = biological target: Fuc(a1-2)Gal(b1-3)[Fuc(a1-4)]GlcNAc
# Summary of the method: as §1
# Fuc(a1-2)Gal(b1-4)Glc = biological target: Fuc(a1-2)Gal(b1-4)Glc
# Summary of the method: as §1
# Fuc(a1-2)Gal(b1-4)Glc6S = biological target: Fuc(a1-2)Gal(b1-4)Glc6S
# Summary of the method: as §1
# Fuc(a1-2)Gal(b1-4)GlcNAc = biological target: Fuc(a1-2)Gal(b1-4)GlcNAc
# Summary of the method: as §1
# [6] = biological target: Fuc(a1-2)Gal(b1-4)GlcNAc(b1-3)Gal(b1-4)GlcNAc
# Summary of the method: as §1
# [7] = biological target: Fuc(a1-2)Gal(b1-4)GlcNAc(b1-3)Gal(b1-4)GlcNAc(b1-3)Gal(b1-4)GlcNAc
# Summary of the method: as §1
# [8] = biological target: Fuc(a1-2)Gal(b1-4)GlcNAc6S
# Summary of the method: as §1
# [9] = biological target: Fuc(a1-2)Gal(b1-4)[Fuc(a1-3)]GalNAc(b1-3)Gal(b1-4)[Fuc(a1-3)]GlcNAc
# Summary of the method: as §1
# [10] = biological target: Fuc(a1-2)Gal(b1-4)[Fuc(a1-3)]GalNAc(b1-3)Gal(b1-4)[Fuc(a1-3)]GlcNAc(b1-3)Gal(b1-4)[Fuc(a1-3)]GalNAc
# Summary of the method: as §1
# [11] = biological target: Fuc(a1-2)Gal(b1-4)[Fuc(a1-3)]GlcNAc
# Summary of the method: as §1
# Fuc(a1-2)Gal6S(b1-4)Glc = biological target: Fuc(a1-2)Gal6S(b1-4)Glc
# Summary of the method: as §1
# [12] = biological target: Fuc(a1-2)Gal6S(b1-4)Glc6S
# Summary of the method: as §1
# [13] = biological target: Fuc(a1-2)Gal6S(b1-4)GlcNAc
# Summary of the method: as §1
# Fuc(a1-2)GlcNAc = biological target: Fuc(a1-2)GlcNAc
# Summary of the method: as §1
# Fuc(a1-2)[Gal(a1-3)]Gal = biological target: Fuc(a1-2)[Gal(a1-3)]Gal
# Summary of the method: as §1
# [14] = biological target: Fuc(a1-2)[Gal(a1-3)]Gal(b1-3)GlcNAc
# Summary of the method: as §1
# [15] = biological target: Fuc(a1-2)[Gal(a1-3)]Gal(b1-4)Glc
# Summary of the method: as §1
# [16] = biological target: Fuc(a1-2)[Gal(a1-3)]Gal(b1-4)GlcNAc
# Summary of the method: as §1
# [17] = biological target: Fuc(a1-2)[Gal(a1-3)]Gal(b1-4)[Fuc(a1-3)]GlcNAc
# Summary of the method: as §1
# [18] = biological target: Fuc(a1-2)[Gal(a1-4)]Gal(b1-4)GalNAc
# Summary of the method: as §1
# [19] = biological target: Fuc(a1-2)[GalNAc(a1-3)]Gal
# Summary of the method: as §1
# [20] = biological target: Fuc(a1-2)[GalNAc(a1-3)]Gal(b1-3)GlcNAc
# Summary of the method: as §1
# [21] = biological target: Fuc(a1-2)[GalNAc(a1-3)]Gal(b1-4)Glc
# Summary of the method: as §1
# [22] = biological target: Fuc(a1-2)[GalNAc(a1-3)]Gal(b1-4)GlcNAc
# Summary of the method: as §1
# [23] = biological target: Fuc(a1-2)[GalNAc(a1-3)]Gal(b1-4)[Fuc(a1-3)]GlcNAc
# Summary of the method: as §1
# [24] = biological target: Fuc(a1-2)[GalNAc(a1-4)]Gal(b1-4)GlcNAc
# Summary of the method: as §1
# Fuc(a1-3)GlcNAc = biological target: Fuc(a1-3)GlcNAc
# Summary of the method: as §1
# [25] = biological target: Fuc(a1-3)[Gal(b1-4)]Glc6S
# Summary of the method: as §1
# [26] = biological target: Fuc(a1-3)[Gal(b1-4)]GlcNAc
# Summary of the method: as §1
# [27] = biological target: Fuc(a1-3)[Gal(b1-4)]GlcNAc(b1-3)Gal(b1-3)[Fuc(a1-4)]GlcNAc
# Summary of the method: as §1
# [28] = biological target: Fuc(a1-3)[Gal(b1-4)]GlcNAc(b1-4)Gal(b1-4)[Fuc(a1-3)]GlcNAc
# Summary of the method: as §1
# [29] = biological target: Fuc(a1-3)[Gal(b1-4)]GlcNAc(b1-4)Gal(b1-4)[Fuc(a1-3)]GlcNAc(b1-4)Gal(b1-4)[Fuc(a1-3)]GlcNAc
# Summary of the method: as §1
# [30] = biological target: Fuc(a1-3)[Gal(b1-4)]GlcNAc6S
# Summary of the method: as §1
# [31] = biological target: Fuc(a1-3)[Gal3S(b1-4)]Glc
# Summary of the method: as §1
# [32] = biological target: Fuc(a1-3)[Gal3S(b1-4)]Glc6S
# Summary of the method: as §1
# [33] = biological target: Fuc(a1-3)[Gal3S(b1-4)]GlcNAc
# Summary of the method: as §1
# [34] = biological target: Fuc(a1-3)[Gal3S(b1-4)]GlcNAc6S
# Summary of the method: as §1
# [35] = biological target: Fuc(a1-3)[GalNAc(b1-4)]Gal(b1-4)GlcNAc
# Summary of the method: as §1
# Fuc(a1-4)GlcNAc = biological target: Fuc(a1-4)GlcNAc
# Summary of the method: as §1
# Fuc(b1-3)GlcNAc = biological target: Fuc(b1-3)GlcNAc
# Summary of the method: as §1
# Gal(a1-2)Gal = biological target: Gal(a1-2)Gal
# Summary of the method: as §1
# Gal(a1-3)Gal = biological target: Gal(a1-3)Gal
# Summary of the method: as §1
# Gal(a1-3)Gal(b1-3)Glc = biological target: Gal(a1-3)Gal(b1-3)Glc
# Summary of the method: as §1
# Gal(a1-3)Gal(b1-3)GlcNAc = biological target: Gal(a1-3)Gal(b1-3)GlcNAc
# Summary of the method: as §1
# Gal(a1-3)Gal(b1-4)GlcNAc = biological target: Gal(a1-3)Gal(b1-4)GlcNAc
# Summary of the method: as §1
# [36] = biological target: Gal(a1-3)Gal(b1-4)[Fuc(a1-3)]GalNAc
# Summary of the method: as §1
# Gal(a1-3)GlcNAc = biological target: Gal(a1-3)GlcNAc
# Summary of the method: as §1
# [37] = biological target: Gal(a1-3)[Gal(a1-4)]Gal(b1-4)GlcNAc
# Summary of the method: as §1
# Gal(a1-4)Gal(b1-4)Gal = biological target: Gal(a1-4)Gal(b1-4)Gal
# Summary of the method: as §1
# Gal(a1-4)Gal(b1-4)GalNAc = biological target: Gal(a1-4)Gal(b1-4)GalNAc
# Summary of the method: as §1
# Gal(a1-4)GlcNAc = biological target: Gal(a1-4)GlcNAc
# Summary of the method: as §1
# Gal(a1-6)Glc = biological target: Gal(a1-6)Glc
# Summary of the method: as §1
# Gal(b1-2)Gal = biological target: Gal(b1-2)Gal
# Summary of the method: as §1
# Gal(b1-3)Gal = biological target: Gal(b1-3)Gal
# Summary of the method: as §1
binder,measurement,setting,value
B1,glycan array binding signal (z-score),Fuc(a1-2)Gal,-0.587
same,glycan array binding signal (z-score),Fuc(a1-2)Gal(b1-3)GalNAc,-0.582
same,glycan array binding signal (z-score),[1],-0.572
same,glycan array binding signal (z-score),[2],-0.58
same,glycan array binding signal (z-score),[3],-0.595
same,glycan array binding signal (z-score),[4],-0.584
same,glycan array binding signal (z-score),[5],-0.603
same,glycan array binding signal (z-score),Fuc(a1-2)Gal(b1-4)Glc,-0.595
same,glycan array binding signal (z-score),Fuc(a1-2)Gal(b1-4)Glc6S,-0.576
same,glycan array binding signal (z-score),Fuc(a1-2)Gal(b1-4)GlcNAc,2.12
same,glycan array binding signal (z-score),[6],2.12
same,glycan array binding signal (z-score),[7],1.72
same,glycan array binding signal (z-score),[8],1.6
same,glycan array binding signal (z-score),[9],-0.593
same,glycan array binding signal (z-score),[10],-0.583
same,glycan array binding signal (z-score),[11],-0.573
same,glycan array binding signal (z-score),Fuc(a1-2)Gal6S(b1-4)Glc,-0.584
same,glycan array binding signal (z-score),[12],-0.53
same,glycan array binding signal (z-score),[13],-0.558
same,glycan array binding signal (z-score),Fuc(a1-2)GlcNAc,-0.595
same,glycan array binding signal (z-score),Fuc(a1-2)[Gal(a1-3)]Gal,-0.597
same,glycan array binding signal (z-score),[14],-0.588
same,glycan array binding signal (z-score),[15],-0.597
same,glycan array binding signal (z-score),[16],1.58
same,glycan array binding signal (z-score),[17],-0.593
same,glycan array binding signal (z-score),[18],1.82
same,glycan array binding signal (z-score),[19],-0.588
same,glycan array binding signal (z-score),[20],-0.59
same,glycan array binding signal (z-score),[21],-0.586
same,glycan array binding signal (z-score),[22],1.81
same,glycan array binding signal (z-score),[23],-0.574
same,glycan array binding signal (z-score),[24],1.89
same,glycan array binding signal (z-score),Fuc(a1-3)GlcNAc,-0.568
same,glycan array binding signal (z-score),[25],-0.562
same,glycan array binding signal (z-score),[26],-0.587
same,glycan array binding signal (z-score),[27],-0.582
same,glycan array binding signal (z-score),[28],-0.582
same,glycan array binding signal (z-score),[29],-0.59
same,glycan array binding signal (z-score),[30],1.88
same,glycan array binding signal (z-score),[31],-0.568
same,glycan array binding signal (z-score),[32],-0.54
same,glycan array binding signal (z-score),[33],-0.544
same,glycan array binding signal (z-score),[34],1.67
same,glycan array binding signal (z-score),[35],-0.59
same,glycan array binding signal (z-score),Fuc(a1-4)GlcNAc,-0.583
same,glycan array binding signal (z-score),Fuc(b1-3)GlcNAc,-0.593
same,glycan array binding signal (z-score),Gal(a1-2)Gal,-0.577
same,glycan array binding signal (z-score),Gal(a1-3)Gal,-0.569
same,glycan array binding signal (z-score),Gal(a1-3)Gal(b1-3)Glc,-0.582
same,glycan array binding signal (z-score),Gal(a1-3)Gal(b1-3)GlcNAc,-0.585
same,glycan array binding signal (z-score),Gal(a1-3)Gal(b1-4)GlcNAc,1.54
same,glycan array binding signal (z-score),[36],-0.597
same,glycan array binding signal (z-score),Gal(a1-3)GlcNAc,-0.586
same,glycan array binding signal (z-score),[37],1.61
same,glycan array binding signal (z-score),Gal(a1-4)Gal(b1-4)Gal,-0.59
same,glycan array binding signal (z-score),Gal(a1-4)Gal(b1-4)GalNAc,1.59
same,glycan array binding signal (z-score),Gal(a1-4)GlcNAc,1.2
same,glycan array binding signal (z-score),Gal(a1-6)Glc,-0.585
same,glycan array binding signal (z-score),Gal(b1-2)Gal,-0.575
same,glycan array binding signal (z-score),Gal(b1-3)Gal,-0.58

# Reference: the supplement of paper PMC8728848
